In PubChem BioAssay AID624353 (The Scripps Research Institute Molecular Screening Center, 2012) one finds IC50 data, which are given here for 1 compound.

Certain results were filed several times, with different values. The other results are left out here.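 How the source made its calls: active means insulin-degrading enzyme inhibitors with IC50 at or below 10 µM; inactive means the rest.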 An entry can have further records. Values that stand side by side are repeated measurements (runs, samples, wells, individuals or studies). Records carry a tag for their origin. Letters count within one entry.

The target in this test is Insulin-degrading enzyme (Homo sapiens) (UniProt P14735). The test is described as follows: IDE inhibitors, wild-type enzyme, late-stage follow-up, counter-screen for IDE inhibitor project, biochemical, fluorescence polarization, FAbetaB substrate, round 2 (AID 624353). The following applies: recombinant IDE, FAbetaB cleavage. The method in brief:
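material = recombinant wild-type insulin-degrading enzyme (IDE), purified enzyme | amount = 1 nM IDE | buffer or medium = HEPES, pH 7.4 | reagent = 100 nM fluorescein-Aβ-biotin substrate | times = reaction at room temperature | detection = fluorescence polarization, ex 485 nm, em 525 nm | controls = DMSO-only wells as low control, IDE inhibitor Ii1 as high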

UniProt P14735, sequence (P14735 whole entry, looked up): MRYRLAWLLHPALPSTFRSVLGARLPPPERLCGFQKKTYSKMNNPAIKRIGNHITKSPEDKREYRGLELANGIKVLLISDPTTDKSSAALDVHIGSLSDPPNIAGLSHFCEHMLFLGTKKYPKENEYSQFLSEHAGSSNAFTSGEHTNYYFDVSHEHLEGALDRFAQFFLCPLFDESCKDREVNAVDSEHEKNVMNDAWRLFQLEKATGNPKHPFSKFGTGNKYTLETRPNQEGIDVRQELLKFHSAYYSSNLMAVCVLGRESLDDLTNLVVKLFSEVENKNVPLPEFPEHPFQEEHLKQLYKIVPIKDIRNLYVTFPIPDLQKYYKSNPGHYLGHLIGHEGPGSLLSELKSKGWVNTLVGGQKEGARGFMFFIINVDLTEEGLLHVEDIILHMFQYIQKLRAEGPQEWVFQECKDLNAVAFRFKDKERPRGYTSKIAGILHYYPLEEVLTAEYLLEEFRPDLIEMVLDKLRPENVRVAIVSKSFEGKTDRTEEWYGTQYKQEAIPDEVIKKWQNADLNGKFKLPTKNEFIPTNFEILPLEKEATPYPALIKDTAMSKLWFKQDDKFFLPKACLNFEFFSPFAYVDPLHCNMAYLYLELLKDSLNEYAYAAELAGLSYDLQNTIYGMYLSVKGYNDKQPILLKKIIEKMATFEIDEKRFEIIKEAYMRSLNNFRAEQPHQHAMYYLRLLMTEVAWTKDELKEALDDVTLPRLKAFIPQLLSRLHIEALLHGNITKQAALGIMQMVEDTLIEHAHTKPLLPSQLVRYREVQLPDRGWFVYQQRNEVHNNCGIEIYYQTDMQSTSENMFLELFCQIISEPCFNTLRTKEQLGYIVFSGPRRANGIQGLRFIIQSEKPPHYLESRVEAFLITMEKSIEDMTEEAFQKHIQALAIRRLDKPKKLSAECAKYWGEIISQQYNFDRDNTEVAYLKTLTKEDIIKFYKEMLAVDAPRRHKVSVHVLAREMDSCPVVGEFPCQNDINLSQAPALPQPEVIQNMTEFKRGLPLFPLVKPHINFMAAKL

Turning to `COc1ccc(C(=O)N2CCN(C(=O)C3COc4ccccc4O3)CC2)cc1` (stereo unspecified), the IC50 entry was “inactive [sample A] and inactive: > 33 µM [sample B]”.
